Results on 90 molecules are retold here after PubChem BioAssay AID1460 (National Center for Advancing Translational Sciences (NCATS), 2008).

Among all 270,000 compounds or so, about 5,800 (2.1%) were called active. Inconclusive results (about 16%) are left out. The call rests on the fitted dose curve; in most records, active means well fitted inhibition curve with a large enough effect; inconclusive means small, poorly fitted or top-dose-only effect; inactive means flat fitted curve, though single readings scatter. Only a part is listed here, and it is no random draw. Some compounds were tested as several samples or in several runs, with calls that do not always agree.
On the % scale 0 is the no-effect control and ±100 the full control effect; potency means the concentration at half of the fitted maximal effect.

In the assay the target is Microtubule-associated protein tau (Homo sapiens) (UniProt P10636). In words: qHTS for Inhibitors of Tau Fibril Formation, Thioflavin T Binding. Further: nearly all actives have a fitted effect of over 55% in size. The note with it: recombinant tau K18 P301L (four-repeat tau fragment), heparin-induced fibrillization, ThT fluorescence; series mostly up to 57.4 µM; activity, negative = inhibition: at the top concentration. In a few lines: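 Heparin-induced (20 uM) aggregation of recombinant human K18 P301L tau, 15 uM unlabeled with 0.24 uM labeled, pH 7 acetate buffer, 6 hr at 37 C with compound. Fibrils quantified by 30 uM ThT fluorescence after 1 hr ambient incubation.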
Sequence of UniProt P10636 (P10636 whole entry, looked up, the tested form may be a part): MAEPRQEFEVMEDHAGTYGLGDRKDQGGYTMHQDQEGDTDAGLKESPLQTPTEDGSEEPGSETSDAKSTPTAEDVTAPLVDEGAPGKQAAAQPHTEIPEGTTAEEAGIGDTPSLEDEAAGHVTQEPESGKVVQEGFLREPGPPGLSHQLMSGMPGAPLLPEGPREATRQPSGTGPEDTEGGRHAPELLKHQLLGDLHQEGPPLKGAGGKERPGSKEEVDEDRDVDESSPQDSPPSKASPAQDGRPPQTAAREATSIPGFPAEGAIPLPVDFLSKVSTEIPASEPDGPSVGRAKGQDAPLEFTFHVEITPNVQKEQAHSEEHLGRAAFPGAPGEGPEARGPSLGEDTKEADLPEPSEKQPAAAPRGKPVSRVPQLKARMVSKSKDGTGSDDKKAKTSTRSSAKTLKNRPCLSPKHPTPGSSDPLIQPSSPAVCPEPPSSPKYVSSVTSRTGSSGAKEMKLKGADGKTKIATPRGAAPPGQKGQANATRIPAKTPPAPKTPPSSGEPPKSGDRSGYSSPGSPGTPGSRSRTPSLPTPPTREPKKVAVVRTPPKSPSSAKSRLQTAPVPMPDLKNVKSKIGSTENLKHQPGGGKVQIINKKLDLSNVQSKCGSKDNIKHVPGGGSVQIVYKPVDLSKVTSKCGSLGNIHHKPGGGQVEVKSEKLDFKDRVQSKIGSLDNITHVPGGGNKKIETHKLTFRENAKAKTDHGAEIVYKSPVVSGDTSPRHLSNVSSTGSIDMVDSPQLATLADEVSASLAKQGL
Turning to `COC(=O)c1c(SCC(=O)Nc2ccccc2OC)[nH]c2ccccc2c1=O`, the Potency is active: 14.1 µM.
Same read-out and setting: with `COn1c(C)c(C)c2c3nonc3ccc21` the figure was active: 14.1 µM.
As for `O=C1NC(=Nc2ccccc2)S/C1=C/c1cccnc1`, the “activity, negative = inhibition” value is inactive: -9.88%.
The same measure, in the same setting: with `COC(=O)[C@H](Cc1ccccc1)NC(=O)[C@]1(C)C[C@H]1[C@H](NC(=O)OCc1ccccc1)c1ccccc1` the figure was inactive: -13.7%.
As to `Cc1cc(C(=O)Nc2ccc(N3CCCC3)c(Cl)c2)ccc1[N+](=O)[O-]`, the Potency was active: 5.01 µM.
Consider `Cc1occc1C(=O)N/N=C/C(Br)=C\c1ccccc1`, for which the “activity, negative = inhibition” value is inactive: -6.99%.
Still for that read-out and setting: as for `CC1(OC(=O)CCc2ccccc2)C(=O)C=C2C=C(c3ccc(C#N)cc3)N(Cc3ccco3)C=C2C1=O` (stereo not given), the figure is inactive: -14.9% [at 11.5 µM]; as for `CCn1c(COc2cccc(C)c2)nc2ccccc21`, inactive: 1.08%.
As to `CCO[C@H]1OC(C(N)=O)=C[C@@H](C2CCCCC2)[C@@H]1CCCO`, the “activity, negative = inhibition” value is inactive: 3.54%.
As to `Cc1cc([N+](=O)[O-])ccc1-c1ccc(C2Nc3ccccc3C(=O)N2O)o1` (stereo not given), the Potency is active: 14.1 µM.
The same measure, in the same setting: as for `CC[n+]1c(/C=C/C=C/N(C(C)=O)c2ccccc2)sc2cc(OC)ccc21`, the figure is active: 12.6 µM.
In the case of `CC(C)[C@@H]1CC[C@@H](C)C[C@H]1OC(=O)C[n+]1cc(-c2ccc(Cl)cc2)n2c1CCCCC2`, the “activity, negative = inhibition” value was inactive: -12.1%.
Still for that read-out and setting: with `Cc1cccc(C(=O)N2CCC(=O)N([C@H](COCc3cccc(Cl)c3)Cc3ccccc3)CC2)c1` the figure was inactive: -19.7%.
Still for that read-out and setting: as for `COCCCn1c(-c2ccc(S(=O)(=O)N3CCOCC3)cc2)csc1=Nc1ccccc1`, the figure is inactive: -2.64%.
The same measure, in the same setting: with `CC(=O)n1cc([C@H]2C=C(C(=O)N3CCN(Cc4ccc5c(c4)OCO5)CC3)O[C@@H](OCc3ccc(CO)cc3)C2)c2ccccc21` the figure was inactive: -4.01%.
`CCOCCCNC1=C(Cl)C(=O)c2ccccc2C1=O`: the Potency was active: 15.8 µM.
Consider `CN1C(=O)C(O)(CC(=O)c2ccccc2O)c2cc(Br)ccc21` (stereo not given), for which the “activity, negative = inhibition” value was inactive: -20.6%.
Take `O=C(C1=C[C@@H](c2csc3ccccc23)C[C@@H](OCCCCO)O1)N1CCN(Cc2ccc3c(c2)OCO3)CC1`: the “activity, negative = inhibition” value was inactive: -11.8%.
`Cc1cccc(C)c1Nc1c(-c2ccc(N3CCOCC3)cc2)nc2ncccn12`: the “activity, negative = inhibition” value was inactive: -1.5%.
For the molecule `CNC(=S)N/N=C/c1ccc(N2CCOCC2)s1`, the Potency was active: 17.8 µM.
On the same count and under the same terms, with `COc1cc(OC)cc(C(=O)Nc2ccc3nc4c(c(Nc5ccc(OC)c(OC)c5)c3c2)CCCC4)c1` the figure was active: 31.6 µM.
Regarding `CCCCCCCCCCCCCCCC(O)C(N)CO` (stereo not given), the “activity, negative = inhibition” value was inactive: -13.3%.
Take `O=C(O)/C=C/c1ccc(O)c(O)c1`: the Potency result was “inactive”.
For the molecule `CN1/C(=C\C(=S)NC(=O)c2cccc(Br)c2)C(C)(C)c2ccccc21`, the Potency is active: 7.08 µM.
Turning to `Cc1ccc2nc(N(CCCN(C)C)C(=O)c3ccco3)sc2c1`, the “activity, negative = inhibition” value is inactive: -5.21%.
As for `CCOc1cc(/C=C/c2ccc3cccc([N+](=O)[O-])c3n2)ccc1O`, the Potency is active: 14.1 µM.
Consider `COc1cccc(-c2cc(=O)c3cc(NC(=O)c4ccc(N(C)C)cc4)ccc3[nH]2)c1`, for which the “activity, negative = inhibition” value is inactive: -6.41%.
As for `CCNc1ccc(Br)cc(C(=O)/C=C/c2ccc(Cl)cc2Cl)c1=O`, the Potency is active: 15.8 µM.
As to `Cc1cccc(C(=O)N2CCC(=O)N([C@H](COCc3ccc(Cl)cc3)Cc3ccccc3)CC2)c1`, the “activity, negative = inhibition” value was inactive: -20.2%.
With `COc1ccc(C2(CNC(=O)/C=C/c3ccco3)CCCC2)cc1OC`, the “activity, negative = inhibition” value was inactive: -15.1%.
Take `Cc1cccc(OCCNc2cc(N3CCN(CCO)CC3)ccc2[N+](=O)[O-])c1`: the Potency was active: 28.2 µM.
With `Nc1ncnc2c1ncn2[C@@H]1O[C@H](CO)[C@@H](O)[C@H]1O`, the Potency result is “inactive”.
As for `C[C@@H](C(=O)NCCc1c[nH]c2ccccc12)[C@H]1C[C@]1(C)[C@H](NC(=O)OCc1ccccc1)c1ccccc1`, the “activity, negative = inhibition” value was inactive: -17.1%.
Still for that read-out and setting: with `O=C(Nc1cccc(F)c1)c1ccc(Br)o1` the figure was inactive: -4.5%.
Turning to `COc1cc([N+](=O)[O-])cc(/C=N\NC(=O)C2COc3ccccc3O2)c1O` (stereo not given), the Potency was active: 10 µM.
On the same count and under the same terms, with `COc1ccc2c(c1)O[C@H](c1ccc3c(c1)OCO3)[C@@H](OC(=O)Nc1cc(OC)c(OC)c(OC)c1)C2=O` the entry was “inactive”; with `CNc1ccc(/C=C2\CSc3ccccc3C2=O)cc1[N+](=O)[O-]`, active: 2.51 µM.
For `COc1cc(C2Oc3cc(C4Oc5cc(O)cc(O)c5C(=O)C4O)ccc3OC2CO)ccc1O` (stereo not given), the “activity, negative = inhibition” value is inactive: 4.29%.
As for `NC(=S)N/N=C/c1coc2cc(Br)ccc2c1=O`, the Potency is active: 15.8 µM.
As for `Cc1ccc(CNC(=O)[C@H](C)[C@H]2C[C@]2(C)[C@H](NC(=O)OCc2ccccc2)c2ccccc2)o1`, the “activity, negative = inhibition” value is inactive: -3.49%.
For the molecule `C[C@]12CC[C@@H]3c4ccc(O)cc4CC[C@H]3[C@@H]1CC[C@@H]2O`, the Potency result is “inactive”.
On to `CCCCC1=CC2=CC(=O)C(C)(OC(=O)CC)C(=O)C2=CN1Cc1ccco1` (stereo not given), for which the activity, negative = inhibition is inactive: -10.7% [at 11.5 µM].
Consider `COc1ccccc1C1=Nc2cccc3cccc(c23)N1`, for which the Potency is active: 11.2 µM.
Regarding `CCC/C=C(\CCC)C(NS(=O)(=O)c1ccc(C(F)(F)F)cc1)c1ccccc1` (stereo not given), the “activity, negative = inhibition” value is inactive: -17.7%.
Still for that read-out and setting: with `CCOC(=O)c1cnc2ccc(OC)cc2c1NCCc1ccc(OC)c(OC)c1` the figure was inactive: -15.6%; with `CCN1/C(=C2/OC(=S)N(C)C2=O)Sc2ccccc21`, inactive: -9.98%.
As to `CSC(=NC#N)N1CCN(c2ccc([N+](=O)[O-])cc2)CC1`, the Potency was active: 2 µM.
For `O=C(CCCN1C(=O)/C(=C\c2cccs2)SC1=S)NNC(=O)c1cccnc1`, the “activity, negative = inhibition” value is inactive: -18.5%.
For `O=C1CSC(=S)N1/N=C/c1ccc(O)c(O)c1O`, the Potency was active: 3.55 µM.
In the case of `C[C@@H](C(=O)NCc1ccccc1)[C@@H]1C[C@@]1(C)[C@@H](NC(=O)OCc1ccccc1)c1ccccc1`, the “activity, negative = inhibition” value was inactive: 8.8%.
On to `Fc1ccc(C(c2ccc(F)cc2)N2CCN(C/C=C/c3ccccc3)CC2)cc1`, for which the Potency result was “inactive”.
As to `CCC1=C(OC(=O)N(CC)CC)N2C(=O)OC(=NCCc3c[nH]c4ccccc34)[C@]2(C)[C@H]2C1=CC[C@H]1C(=O)NC(=O)[C@H]12`, the “activity, negative = inhibition” value was inactive: -13.2%.
Same read-out and setting: with `COc1ccc(C2=NC(c3ccccc3)CO2)cc1` (stereo not given) the figure was inactive: -15.3%.
Turning to `Cc1ccc(C(=O)N2CCN(c3ccc([N+](=O)[O-])c(NCc4cccnc4)c3)CC2)cc1`, the Potency was active: 12.6 µM.
On to `N#Cc1ccc(C23CC4(C2)[C@H](CN(CC2CCCCC2)[C@@H]4c2ccccc2)C3c2ccc(C(F)(F)F)cc2)cc1` (stereo not given in full), for which the “activity, negative = inhibition” value is inactive: -0.341%.
Still for that read-out and setting: as for `O=C(O)c1ccc(NCc2nc3ccccc3n2CCOc2ccccc2Cl)cc1`, the figure is inactive: 3.1%.
Regarding `COc1cc(/C=C/C(=O)c2ccc(C)c([N+](=O)[O-])c2)cc(OC)c1O`, the Potency is active: 6.31 µM.
Consider `CC(=O)SC1CC2=CC(=O)CC[C@@]2(C)C2CC[C@@]3(C)[C@@H](CC[C@@]34CCC(=O)O4)C12` (stereo not given in full), for which the “activity, negative = inhibition” value is inactive: -5.71%.
Turning to `CCCCN1/C(=C/c2ccc3ccccc3[n+]2CC)Sc2ccccc21`, the Potency is active: 14.1 µM.
As for `CC1=NN(Cc2ccccc2)C(=O)/C1=C/c1ccc(N(C)C)cc1`, the “activity, negative = inhibition” value is inactive: -8.5%.
Take `CCCC(=O)n1nc(-c2cccnc2)nc1NCc1ccc(OC)cc1`: the “activity, negative = inhibition” value was inactive: -16.2%.
Same read-out and setting: with `COc1ccc([C@@H]2C[C@H](c3ccccc3)Oc3cc(C)cc(C)c32)cc1` the figure was inactive: -0.535%.
With `Cc1ccccc1NC1=C/C(=N\S(=O)(=O)c2cccs2)c2ccccc2C1=O`, the Potency was active: 8.91 µM.
In the case of `CC(=O)NC/C(C)=N\Nc1ccc([N+](=O)[O-])cc1`, the Potency was active: 15.8 µM.
Same read-out and setting: with `CSc1nnc(C)c(/C=C/Nc2ccc(C)cc2)n1` the figure was active: 5.01 µM; with `COc1ccc2c(c1OC)C(Cc1ccccc1)N1CCc3cc4c(cc3C1C2)OCO4` (stereo not given), active: 15.8 µM.
For `COc1cc2c(cc1O)CCC1C2CC[C@@]2(C)C1CC[C@@H]2O` (stereo not given in full), the “activity, negative = inhibition” value is inactive: -17%.
For `Cc1ccc(CS(=O)(=O)c2ncc(Cl)c(C(=O)Nc3nc4ccc(F)cc4s3)n2)cc1`, the Potency is active: 14.1 µM.
On the same count and under the same terms, as for `CC1C/C(=C/c2ccncc2)C(=O)/C(=C/c2ccncc2)C1` (stereo not given), the figure is active: 8.91 µM; as for `COc1ccc(/C=C2\CCOC2=O)cc1`, “inactive”.
The same measure, in the same setting: as for `CC1(C)[C@@H]2CC[C@@]1(C)C(=O)C2`, the entry is “inactive”.
Regarding `Cc1cc(C)[n+]2n1C(=O)C(c1ccccc1)=C2[O-]`, the “activity, negative = inhibition” value is inactive: -9.44%.
For the molecule `COC(=O)c1ccc(NC(=O)CN2CCN(c3ccc(Cl)cc3)CC2)cc1`, the “activity, negative = inhibition” value is inactive: -14.8%.
The same measure, in the same setting: as for `CC1(C)OC(c2ccccc2)=C/C(=C/C=N/NC(=O)c2ccncc2)O1`, the figure is inactive: 11.2%; as for `COc1cccc(-c2nc(N3CCN(Cc4ccccc4)CC3)c3ccccc3n2)c1O`, inactive: -9.25%.
Regarding `CC1CC(C)CN(C(=O)c2ccc3c(c2NCCO)C(=O)c2ccccc2C3=O)C1` (stereo not given), the Potency is active: 17.8 µM.
As for `COC(=O)CCC(=O)OC1(C)C(=O)C2=CN(CC3CC3)C(c3ccc(OC)cc3)=CC2=C(Br)C1=O` (stereo not given), the activity, negative = inhibition was inactive: -4.11% [at 11.5 µM].
Turning to `CCCCC(C)(O)C/C=C/[C@H]1[C@H](O)CC(=O)[C@@H]1CCCCCCC(=O)OC` (stereo not given in full), the “activity, negative = inhibition” value was inactive: -4.63%.
On the same count and under the same terms, as for `C=CCN1c2ccccc2[C@]23C[C@@H](C(=O)OC)N(C(=O)c4cccs4)C2=NC(C(=O)OC)=C(C(=O)OC)[C@H]13`, the figure is inactive: 1.61% [at 11.5 µM].
Regarding `CC1=C(\C=C/C(C)=C/C=C\C(C)=C\C(=O)O)C(C)(C)CCC1`, the Potency entry was “inactive”.
Same read-out and setting: as for `CC(=O)Nc1ccc(Nc2nc(C)c([N+](=O)[O-])c(N(C)c3ccccc3)n2)cc1`, the figure is active: 15.8 µM.
As to `Cc1ccccc1NC(=O)Cn1c(=O)n(Cc2ccccc2)c(=O)c2c(C)c(C)sc21`, the “activity, negative = inhibition” value was inactive: 8.97%.
For the molecule `Cc1ccc(NC(=O)c2ccc(N/N=C/c3cccc(O)c3)c([N+](=O)[O-])c2)cc1`, the Potency was active: 1.58 µM.
Same read-out and setting: with `O=C(CCCN1CC=C(n2c(=O)[nH]c3ccccc32)CC1)c1ccc(F)cc1` the entry was “inactive”; with `C=CC(C1=CC(=O)C=CC1=O)c1ccc(O)cc1` (stereo not given), active: 28.2 µM.
Take `CCOC(=O)CCn1nc(-c2ccc(C)cc2)c2ccccc2c1=O`: the “activity, negative = inhibition” value was inactive: -4.2%.
Regarding `Cc1cc(NC(=O)Nc2cccc3ccccc23)no1`, the “activity, negative = inhibition” value is inactive: -15.7%.
The same measure, in the same setting: with `CC(=O)OC1C(=O)[C@@]2(C)C(O)CC3OC[C@]3(OC(C)=O)C2C(OC(=O)c2ccccc2)[C@]2(O)CC(OC(=O)C(O)C(NC(=O)c3ccccc3)c3ccccc3)C(C)=C1C2(C)C` (stereo not given in full) the figure was inactive: -6.35%; with `COc1ccc2cc(CCC(C)=O)ccc2c1`, inactive: -12.4%.
As to `Cc1ccccc1NC(=S)NC(NC(=O)COc1ccccc1)C(Cl)(Cl)Cl` (stereo not given), the Potency is active: 14.1 µM.
